# This is one part of the list. The energies were worked out here from pooled read counts, against the library average; single values are noisy.
# Target: T1, Pho4 (S. cerevisiae) (UniProt P07270)
# T1 sequence: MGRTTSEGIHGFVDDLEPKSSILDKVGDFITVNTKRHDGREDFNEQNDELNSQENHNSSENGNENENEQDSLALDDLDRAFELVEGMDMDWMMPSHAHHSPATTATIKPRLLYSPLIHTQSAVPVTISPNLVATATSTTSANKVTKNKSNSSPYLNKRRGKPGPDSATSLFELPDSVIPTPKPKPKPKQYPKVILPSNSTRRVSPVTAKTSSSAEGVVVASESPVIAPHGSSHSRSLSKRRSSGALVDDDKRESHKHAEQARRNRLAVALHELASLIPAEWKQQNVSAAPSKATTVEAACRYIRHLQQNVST
# Experiment: relative binding free energy (BET-seq); higher = weaker binding
# Conditions: reference: library average
row,Sequence,relative binding free energy [kcal/mol]
1,GTTAACACGTGTGAGT,0.22
2,GAGTTCACGTGCGTGT,0.3
3,TGGGTCACGTGTGGAC,0.16
4,TGTTCCACGTGGGGTC,-0.1
5,GATTACACGTGTTTGG,0.17
6,GGATGCACGTGAGGGT,0.28
7,TGGTTCACGTGTCACG,0.25
8,AAAGGCACGTGTTAAT,0.1
9,AGAATCACGTGTGTGA,0.14
10,TGGTACACGTGGCGTT,0
11,ATTCTCACGTGTGTAA,0.31
12,AATGGCACGTGCCTGG,-0.23
13,GTATACACGTGATGTA,0.18
14,CTCGTCACGTGAGGTG,0.32
15,CTATACACGTGAAGGG,0.31
16,AAACTCACGTGGGGGG,0.12
17,GGTTCCACGTGAGGGC,0.24
18,AGTATCACGTGGATAG,0.09
19,AGCGGCACGTGAGCGT,0.04
20,GTGCTCACGTGGTTTT,0.29
21,TATGTCACGTGTCATT,0.01
22,TTGATCACGTGAGTCA,0.32
23,CCGGGCACGTGTGATG,-0.06

row,Sequence,relative binding free energy [kcal/mol]
1,GATTGCACGTGAGGTT,0.34
2,TGATTCACGTGCATGG,0.11
3,AGTTTCACGTGTGTCT,0.33
4,GGTGGCACGTGAGCTT,0.13
5,AATGACACGTGTGTTG,0.03
6,AAGGTCACGTGGATGA,-0.02
7,CGTCACACGTGAGGGT,0.2
8,GTATTCACGTGTGGAC,0.38
9,AAGTACACGTGAAGGT,0.38
10,TGTACCACGTGGGTTA,0.06
11,GATAGCACGTGTGGCG,-0.02
12,GGCATCACGTGATTGG,0.34
13,GATGGCACGTGACTGG,0.1
14,TCAACCACGTGGGGGG,-0.02
15,CGGTTCACGTGATGGG,0.4
16,AATTACACGTGGTCGA,0.17
17,GAGGACACGTGGAATT,0.29
18,ATTCTCACGTGAGGTA,0.35
19,AATGGCACGTGTATGC,0.04
20,ATTTACACGTGTTACG,0.03
21,GAAAGCACGTGTGGCT,0.06
22,TAGAACACGTGGTTGC,0.03
23,ATGCGCACGTGGGGAG,-0.23

row,Sequence,relative binding free energy [kcal/mol]
1,TAAGGCACGTGGCGCG,-0.27
2,TGGTACACGTGCTCGG,-0.02
3,TGGGACACGTGAATTG,0.26
4,GGAATCACGTGAAGTG,0.35
5,CTGGACACGTGTGGGT,0.01
6,AAGGACACGTGTTGAA,0.13
7,GTTAGCACGTGTAGTA,0.07
8,CTATGCACGTGGGGTG,-0.25
9,TGTCGCACGTGGGCGA,-0.11
10,TATTTCACGTGACGTT,0.31
11,GGTTACACGTGCGTTT,0.22
12,GTACGCACGTGTTTGC,0.05
13,TGTGACACGTGTAGTC,0.14
14,GGGTTCACGTGAGGTA,0.47
15,GGGGACACGTGTGGAT,0.11
16,ATAGTCACGTGTGTAA,0.1
17,GGTTGCACGTGCCTTT,0.07
18,CTTTTCACGTGCGTGT,0.13
19,TTTGACACGTGAAATT,0.31
20,AGGTTCACGTGCTGTG,0.15
21,TGATGCACGTGAGTAT,0.21
22,GGGGGCACGTGATATC,0.08
23,GAGATCACGTGTTCGG,0.19

row,Sequence,relative binding free energy [kcal/mol]
1,ACATGCACGTGCAGGG,0.01
2,TTTGGCACGTGAACGG,0.19
3,CGGATCACGTGCGGTC,0.36
4,GCGGCCACGTGTAGGG,-0.06
5,GTATGCACGTGGGACG,-0.04
6,TACGGCACGTGAGGCG,0.06
7,GTGCTCACGTGTTTAT,0.25
8,GGGAACACGTGTGTCT,0.08
9,GGTTTCACGTGGCTTC,0.33
10,TTTTTCACGTGTGGGA,0.34
11,GGAGGCACGTGGTAGA,-0.02
12,TCTTTCACGTGGTAAA,0.4
13,TGGTCCACGTGTGTGG,0.02
14,ATGATCACGTGGCTGG,0.09
15,AATTTCACGTGGGAGG,0.15
16,TGTCGCACGTGCGGGT,-0.12
17,TGTTGCACGTGGTGCG,-0.09
18,TATAGCACGTGAAGTG,0.2
19,AGAGTCACGTGTAATG,0.24
20,CTGGTCACGTGTAGAA,0.36
21,AGGGCCACGTGTAGCG,0.02
22,CGGGTCACGTGATAGG,0.24
23,AGGTGCACGTGGTTCA,0.02

row,Sequence,relative binding free energy [kcal/mol]
1,CTGGACACGTGTTTAT,0.07
2,TTCTGCACGTGGGGAA,-0.07
3,GGTATCACGTGGGTAA,0.02
4,TAGGTCACGTGGTTTT,0.14
5,TAAATCACGTGGTTGT,0.16
6,GAAAGCACGTGTGAAG,0.16
7,ATTATCACGTGGAGAG,0.15
8,GATAACACGTGTGGTA,0.05
9,CGTTTCACGTGTGTAG,0.28
10,CTCGTCACGTGGGTAG,-0.11
11,AAGTTCACGTGATCGG,0.39
12,TCAGGCACGTGGGATG,-0.17
13,GTGATCACGTGGACTG,0.24
14,GTTCTCACGTGGTGTA,0.18
15,AGGCTCACGTGGTGAG,0.03
16,TTAAGCACGTGAGTGC,0.2
17,TTAATCACGTGGCGCG,0.18
18,GAATACACGTGTGTAT,0.11
19,ATGTGCACGTGCGTGT,-0.12
20,GTCAACACGTGGTTAG,0.09
21,ATTGGCACGTGTTTAG,-0.22
22,GTGAGCACGTGATGTT,0.05
23,AACTTCACGTGTAATT,0.38

# Reference: the BET-seq Pho4 binding data (Le et al. 2018)
